# Test results: the supplement of paper PMC9151546
# Many values rest on one well or one pass, so single values are uncertain.
# Experiments:
# [1] = test system: CHO-K1; test: micronucleus frequency (% of nucleated events); higher = more micronuclei (genotoxic)
# [2] = test system: CHO-K1; test: hypodiploid nuclei frequency (% of nucleated events); higher = more hypodiploid events (aneugenic)
# Method: (§1)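 Flow-cytometric in vitro micronucleus assay (Litron MicroFlow) in CHO-K1 cells in 96-well plates, 19 concentrations (4.5-200 µM, n=1 per concentration). Without S9, cells were exposed for 24 h and sampled at 48 h. With Aroclor 1254-induced rat liver S9, cells were exposed for 3-4 h and sampled at 27-28 h. Read-outs are %MN and %hypodiploid nuclei relative to nucleated events, and relative survival as the nuclei-to-bead ratio versus the 1% DMSO vehicle control (x100).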
# [3] = test system: CHO-K1; test: relative survival (nuclei to bead ratio vs DMSO control) (% of vehicle control); higher = more surviving cells
# Method: as §1
# [4] = concentration: 4.5 (µM), S9 metabolic activation: with S9, exposure time: 3-4 hours
# [5] = concentration: 4.5 (µM), S9 metabolic activation: without S9, exposure time: 24 hours
# [6] = concentration: 5.63 (µM), S9 metabolic activation: with S9, exposure time: 3-4 hours
# [7] = concentration: 5.63 (µM), S9 metabolic activation: without S9, exposure time: 24 hours
# [8] = concentration: 7.04 (µM), S9 metabolic activation: with S9, exposure time: 3-4 hours
# [9] = concentration: 7.04 (µM), S9 metabolic activation: without S9, exposure time: 24 hours
# [10] = concentration: 8.8 (µM), S9 metabolic activation: with S9, exposure time: 3-4 hours
# [11] = concentration: 8.8 (µM), S9 metabolic activation: without S9, exposure time: 24 hours
# [12] = concentration: 11 (µM), S9 metabolic activation: with S9, exposure time: 3-4 hours
# [13] = concentration: 11 (µM), S9 metabolic activation: without S9, exposure time: 24 hours
# [14] = concentration: 13.7 (µM), S9 metabolic activation: with S9, exposure time: 3-4 hours
# [15] = concentration: 13.7 (µM), S9 metabolic activation: without S9, exposure time: 24 hours
# [16] = concentration: 17.2 (µM), S9 metabolic activation: with S9, exposure time: 3-4 hours
# [17] = concentration: 17.2 (µM), S9 metabolic activation: without S9, exposure time: 24 hours
# [18] = concentration: 21.5 (µM), S9 metabolic activation: with S9, exposure time: 3-4 hours
# [19] = concentration: 21.5 (µM), S9 metabolic activation: without S9, exposure time: 24 hours
# [20] = concentration: 26.8 (µM), S9 metabolic activation: with S9, exposure time: 3-4 hours
# [21] = concentration: 26.8 (µM), S9 metabolic activation: without S9, exposure time: 24 hours
# [22] = concentration: 33.6 (µM), S9 metabolic activation: with S9, exposure time: 3-4 hours
# [23] = concentration: 33.6 (µM), S9 metabolic activation: without S9, exposure time: 24 hours
# [24] = concentration: 41.9 (µM), S9 metabolic activation: with S9, exposure time: 3-4 hours
# [25] = concentration: 41.9 (µM), S9 metabolic activation: without S9, exposure time: 24 hours
# [26] = concentration: 52.4 (µM), S9 metabolic activation: with S9, exposure time: 3-4 hours
# [27] = concentration: 52.4 (µM), S9 metabolic activation: without S9, exposure time: 24 hours
# [28] = concentration: 65.5 (µM), S9 metabolic activation: with S9, exposure time: 3-4 hours
# [29] = concentration: 65.5 (µM), S9 metabolic activation: without S9, exposure time: 24 hours
# [30] = concentration: 81.9 (µM), S9 metabolic activation: with S9, exposure time: 3-4 hours
# [31] = concentration: 81.9 (µM), S9 metabolic activation: without S9, exposure time: 24 hours
# [32] = concentration: 102 (µM), S9 metabolic activation: with S9, exposure time: 3-4 hours
# [33] = concentration: 102 (µM), S9 metabolic activation: without S9, exposure time: 24 hours
# [34] = concentration: 128 (µM), S9 metabolic activation: with S9, exposure time: 3-4 hours
# [35] = concentration: 128 (µM), S9 metabolic activation: without S9, exposure time: 24 hours
# [36] = concentration: 160 (µM), S9 metabolic activation: with S9, exposure time: 3-4 hours
# [37] = concentration: 160 (µM), S9 metabolic activation: without S9, exposure time: 24 hours
# [38] = concentration: 200 (µM), S9 metabolic activation: with S9, exposure time: 3-4 hours
# [39] = concentration: 200 (µM), S9 metabolic activation: without S9, exposure time: 24 hours
# 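For hypodiploid nuclei frequency (% of nucleated events) in this document: hypodiploid nuclei gated on a flow cytometer with 488 nm excitation after SYTOX Green staining, cultures at 37 °C, positive controls vinblastine without S9 and cyclophosphamide with S9.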
# 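For micronucleus frequency (% of nucleated events) in this document: cells lysed with nuclei stained by SYTOX Green, then micronucleus-gated events counted against nucleated events by flow cytometry with 488 nm excitation.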
# 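For relative survival (nuclei to bead ratio vs DMSO control) in this document: Lysed-cell nuclei stained with SYTOX Green and counted against counting beads by flow cytometry at 488 nm excitation, with vinblastine (no S9) and cyclophosphamide (plus S9) as positive controls.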
smiles,measurement,setting,value
"ClCC(Cl)CCl [1,2,3-Trichloropropane]",micronucleus frequency,[1]; [4],1.12%
same,micronucleus frequency,[1]; [5],0.98%
same,micronucleus frequency,[1]; [6],0.94%
same,micronucleus frequency,[1]; [7],1.12%
same,micronucleus frequency,[1]; [8],0.8%
same,micronucleus frequency,[1]; [9],1.36%
same,micronucleus frequency,[1]; [10],0.64%
same,micronucleus frequency,[1]; [11],0.98%
same,micronucleus frequency,[1]; [12],0.98%
same,micronucleus frequency,[1]; [13],1.24%
same,micronucleus frequency,[1]; [14],0.84%
same,micronucleus frequency,[1]; [15],1.26%
same,micronucleus frequency,[1]; [16],0.84%
same,micronucleus frequency,[1]; [17],1.02%
same,micronucleus frequency,[1]; [18],1.1%
same,micronucleus frequency,[1]; [19],1.06%
same,micronucleus frequency,[1]; [20],0.68%
same,micronucleus frequency,[1]; [21],1.42%
same,micronucleus frequency,[1]; [22],1.4%
same,micronucleus frequency,[1]; [23],1.3%
same,micronucleus frequency,[1]; [24],0.9%
same,micronucleus frequency,[1]; [25],1.8%
same,micronucleus frequency,[1]; [26],1.06%
same,micronucleus frequency,[1]; [27],1.92%
same,micronucleus frequency,[1]; [28],1.06%
same,micronucleus frequency,[1]; [29],1.26%
same,micronucleus frequency,[1]; [30],0.98%
same,micronucleus frequency,[1]; [31],1.48%
same,micronucleus frequency,[1]; [32],0.96%
same,micronucleus frequency,[1]; [33],1.3%
same,micronucleus frequency,[1]; [34],0.8%
same,micronucleus frequency,[1]; [35],1.38%
same,micronucleus frequency,[1]; [36],1.44%
same,micronucleus frequency,[1]; [37],1.62%
same,micronucleus frequency,[1]; [38],1.18%
same,micronucleus frequency,[1]; [39],2.06%
same,hypodiploid nuclei frequency,[2]; [4],0.12%
same,hypodiploid nuclei frequency,[2]; [5],0.5%
same,hypodiploid nuclei frequency,[2]; [6],0.14%
same,hypodiploid nuclei frequency,[2]; [7],0.7%
same,hypodiploid nuclei frequency,[2]; [8],0.22%
same,hypodiploid nuclei frequency,[2]; [9],0.72%
same,hypodiploid nuclei frequency,[2]; [10],0.22%
same,hypodiploid nuclei frequency,[2]; [11],0.92%
same,hypodiploid nuclei frequency,[2]; [12],0.26%
same,hypodiploid nuclei frequency,[2]; [13],1.02%
same,hypodiploid nuclei frequency,[2]; [14],0.1%
same,hypodiploid nuclei frequency,[2]; [15],0.9%
same,hypodiploid nuclei frequency,[2]; [16],0.36%
same,hypodiploid nuclei frequency,[2]; [17],0.82%
same,hypodiploid nuclei frequency,[2]; [18],0.28%
same,hypodiploid nuclei frequency,[2]; [19],0.74%
same,hypodiploid nuclei frequency,[2]; [20],0.22%
same,hypodiploid nuclei frequency,[2]; [21],0.86%
same,hypodiploid nuclei frequency,[2]; [22],0.14%
same,hypodiploid nuclei frequency,[2]; [23],0.72%
same,hypodiploid nuclei frequency,[2]; [24],0.18%
same,hypodiploid nuclei frequency,[2]; [25],1.12%
same,hypodiploid nuclei frequency,[2]; [26],0.18%
same,hypodiploid nuclei frequency,[2]; [27],1.16%
same,hypodiploid nuclei frequency,[2]; [28],0.2%
same,hypodiploid nuclei frequency,[2]; [29],0.96%
same,hypodiploid nuclei frequency,[2]; [30],0.2%
same,hypodiploid nuclei frequency,[2]; [31],1.3%
same,hypodiploid nuclei frequency,[2]; [32],0.14%
same,hypodiploid nuclei frequency,[2]; [33],1.12%
same,hypodiploid nuclei frequency,[2]; [34],0.32%
same,hypodiploid nuclei frequency,[2]; [35],1.7%
same,hypodiploid nuclei frequency,[2]; [36],0.32%
same,hypodiploid nuclei frequency,[2]; [37],1.82%
same,hypodiploid nuclei frequency,[2]; [38],0.22%
same,hypodiploid nuclei frequency,[2]; [39],1.92%
same,relative survival,[3]; [4],116
same,relative survival,[3]; [5],120
same,relative survival,[3]; [6],101
same,relative survival,[3]; [7],123
same,relative survival,[3]; [8],110
same,relative survival,[3]; [9],110
same,relative survival,[3]; [10],96.7
same,relative survival,[3]; [11],97.6
same,relative survival,[3]; [12],113
same,relative survival,[3]; [13],104
same,relative survival,[3]; [14],100
same,relative survival,[3]; [15],118
same,relative survival,[3]; [16],98.5
same,relative survival,[3]; [17],113
same,relative survival,[3]; [18],94.8
same,relative survival,[3]; [19],117
same,relative survival,[3]; [20],105
same,relative survival,[3]; [21],111
same,relative survival,[3]; [22],84
same,relative survival,[3]; [23],87.3
same,relative survival,[3]; [24],78.1
same,relative survival,[3]; [25],83.9
same,relative survival,[3]; [26],107
same,relative survival,[3]; [27],91.4
same,relative survival,[3]; [28],76.5
same,relative survival,[3]; [29],78.3
same,relative survival,[3]; [30],89
same,relative survival,[3]; [31],70.9
same,relative survival,[3]; [32],91.7
same,relative survival,[3]; [33],83.6
same,relative survival,[3]; [34],101
same,relative survival,[3]; [35],78.8
same,relative survival,[3]; [36],71.3
same,relative survival,[3]; [37],77.3
same,relative survival,[3]; [38],75.2
same,relative survival,[3]; [39],82.3
